{"source": "PubChem BioAssay AID1347120", "about": "(National Center for Advancing Translational Sciences (NCATS), 2019)", "note": "Among all 390,000 compounds or so, about 930 (0.24%) were called active. Inconclusive results, whose numbers are uncertain, are shown with a selection of clear calls. Calls follow the shape of the dose curve; as a rule, active = well fitted activation curve with a large enough effect; inconclusive = small, poorly fitted or top-dose-only effect; inactive = no such curve, though single readings can be large or run the other way. Potencies beside an inconclusive call are fits to weak or partial responses and may not hold up. Potency is read from the fitted curve at half-maximal effect; tags tell the direction and shape of the fitted curve."}
{"assay": "qHTS for Suppressors of FUS Proteinopathy: Primary screen using FUS-linked yeast assay; also: nearly all actives have a fitted effect of over 55% in size;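 as to growth rescue (activation): plate controls were DMSO vehicle for no effect and reference control for full effect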", "details": "S. cerevisiae FUS-expressing, OD600, 24 h; Potency: growth rescue; growth rescue (activation): at 76.6 µM (top of the series)", "method_in_brief": "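Read-out: OD at 600 nm after 24hr at 30C, reporting rescue of FUS-induced yeast toxicity. Cells at OD 0.005 in galactose (2%) minimal medium; compounds tested in a dilution series; CP55940 titration from 92uM final as control.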"}
{"smiles": "CC(C)(C)c1ccc(CSc2nnc(-c3ccccn3)n2Cc2ccco2)cc1", "Potency": "inconclusive: 39.8 µM [activator, single point]"}
{"smiles": "CCc1ccc(C(=O)NC(Cc2c[nH]c3ccccc23)C(=O)OCC(=O)c2ccc(Br)cc2)cc1", "note": "(configuration not stated)", "Potency": "inconclusive: 39.8 µM [activator, single point]"}
{"smiles": "Clc1ccc2nc(CNc3nc(N4CCOCC4)nc4c3ncn4-c3ccsc3)[nH]c2c1", "Potency": "inconclusive: 15.8 µM [activator, partial curve]"}
{"smiles": "COc1ccc(-c2c(-c3ccsc3)oc3ccc(N4CCOCC4)cc23)cn1", "Potency": "inconclusive: 31.6 µM [activator, single point]"}
{"smiles": "Cc1ccc(C(C)C)c(OCC(=O)NCC(c2cccs2)N2CCOCC2)c1", "note": "(configuration not stated)", "Potency": "inactive"}
{"smiles": "CCCCC[C@H](C)N1C[C@@H](COCc2ccccc2)Oc2cc(N3CC[C@@H](O)C3)ccc2S1(=O)=O", "Potency": "inconclusive: 11.2 µM [activator, partial curve, poor fit]"}
{"smiles": "Cc1ccccc1-n1c(Cn2c(=O)sc3ccccc32)nnc1SCC(=O)N1CCOCC1", "Potency": "inconclusive: 20 µM [activator, partial curve]"}
{"smiles": "O=C(NC(NC(=S)Nc1ccc(Cl)c(Cl)c1)C(Cl)(Cl)Cl)c1ccco1", "note": "(configuration not stated)", "Potency": "inconclusive: 2.51 µM [activator, full curve]"}
{"smiles": "O=C(NC1CCCCCC1)C1c2ccccc2C(=O)N1Cc1ccccc1Cl", "note": "(configuration not stated)", "Potency": "inactive"}
{"smiles": "COc1ccc(NC(=O)c2cc(-c3ccccn3)nc3ccccc23)c(OC)c1", "Potency": "inactive"}
{"smiles": "CNC(=O)c1sc(-c2cccnc2)nc1C", "Potency": "inactive"}
{"smiles": "CCN1C(=O)c2ccccc2S(=O)(=O)c2ccc(C(=O)NCc3ccccc3Cl)cc21", "Potency": "inconclusive: 31.6 µM [activator, partial curve, poor fit]"}
{"smiles": "COc1ccc(-c2csc(NC(=O)C3COc4ccccc4O3)n2)cc1OC", "note": "(configuration not stated)", "Potency": "inactive"}
{"smiles": "Cc1cc(C(=O)C(=O)Nc2nnc(C(C)C)s2)c(C)n1-c1ccccc1", "Potency": "inconclusive: 14.1 µM [activator, partial curve, poor fit]"}
{"smiles": "COc1cccc(CNC(=O)c2ccc(NC(=O)N3CCCCc4ccccc43)cc2)c1OC", "Potency": "inactive"}
{"smiles": "CC(C)CCNC(=O)C(C)N(C(=O)c1snc(C(N)=O)c1N)c1cnc2ccccc2c1", "note": "(configuration not stated)", "Potency": "inconclusive: 14.1 µM [activator, partial curve]"}
{"smiles": "COc1ccc(C2=CC(=O)C[C@H](c3ccc(OC)cc3)C2)cc1", "Potency": "inconclusive: 31.6 µM [activator, single point]"}
{"smiles": "CCc1c(O)nc(SCC(=O)Nc2nc3ccccc3s2)n(-c2ccc(C)cc2)c1=O", "Potency": "inconclusive: 50.1 µM [activator, single point]"}
{"smiles": "Cc1ccc(N2CCCC2=O)cc1S(=O)(=O)N1CCOCC1", "Potency": "inactive"}
{"smiles": "COc1ccc(CNC(=O)C2(CC3CC(c4ccccc4)=NO3)CCN(C(=O)c3cccc(O)c3)CC2)cc1", "note": "(configuration not stated)", "Potency": "inconclusive: 50.1 µM [activator, single point]"}
{"smiles": "COc1cn(CC(=O)Nc2ccccc2)c(CN2CCCCC2)cc1=O", "Potency": "inactive"}
{"smiles": "Cc1noc(C)c1COc1ccc(C(=O)Nc2ccccn2)cc1", "Potency": "inconclusive: 6.31 µM [activator, single point]"}
{"smiles": "COC(=O)c1cc(C(=O)OC)cc(-n2c(C)cc(C(=O)COC(=O)CNS(=O)(=O)c3ccc(C)cc3)c2C)c1", "Potency": "inconclusive: 15.8 µM [activator, partial curve, poor fit]"}
{"smiles": "Cc1ccc(NC(=O)c2cc3c(=O)n(Cc4ccco4)ccc3nc2C)cc1C", "Potency": "inconclusive: 28.2 µM [activator, single point]"}
{"smiles": "CCCCC[C@H](C)N1C[C@H](COCc2ccccc2)Oc2cc(N3CC[C@@H](N(C)C)C3)ccc2S1(=O)=O", "Potency": "inconclusive: 31.6 µM [activator, single point]"}
{"smiles": "CC[C@@H](C)[C@@H](C(=O)Nc1ccc(C)cc1)N1Cc2ccccc2C1=O", "Potency": "inconclusive: 35.5 µM [activator, single point]"}
{"smiles": "CCOC(=O)c1cc(-c2ccc(OC)cc2)nc2c1c(C)nn2CCC#N", "Potency": "inconclusive: 28.2 µM [activator, single point]"}
{"smiles": "CC1CCCC(C)N1c1ccc(S(=O)(=O)N2CCOCC2)cc1Cl", "note": "(configuration not stated)", "Potency": "inconclusive: 28.2 µM [activator, single point]"}
{"smiles": "Cc1cccc(C(=O)N2CCC(=O)N([C@H](COCc3cccc(C(F)(F)F)c3)Cc3ccccc3)CC2)c1", "Potency": "inconclusive: 35.5 µM [activator, single point]"}
{"smiles": "CCOC(=O)[C@H]1[C@H]2COc3ccc(Br)cc3[C@@H]2N2C(=O)c3cc(F)c(F)cc3NC(=O)[C@@]12C", "Potency": "active: 28.2 µM"}
{"smiles": "CCOC(=O)C1CCN(C(=O)CSCc2nc(-c3ccc(OCC)cc3)oc2C)CC1", "Potency": "inactive"}
{"smiles": "NC(=O)CCCn1c(C(=O)c2cc(Cl)c(N)c(Cl)c2)c2ccc([N+](=O)[O-])cc2[n+]1[O-]", "Potency": "inconclusive: 35.5 µM [activator, partial curve, poor fit]"}
{"smiles": "CC(=O)Nc1ccc(S(=O)(=O)Nc2cccn(Cc3ccc(C)cc3)c2=O)cc1", "Potency": "inactive"}
{"smiles": "COc1ccc(/C=C2\\Oc3cc(OCC(=O)N4CCC(C(=O)O)CC4)ccc3C2=O)c(OC)c1", "Potency": "inconclusive: 31.6 µM [activator, single point]"}
{"smiles": "Cc1cc(C)cc(-n2c(C)nc3cc(C(=O)NCc4ccccc4Cl)ccc32)c1", "Potency": "inconclusive: 15.8 µM [activator, single point]"}
{"smiles": "COc1cccc(C(=O)Nc2ccc(-n3nncc3-c3ccccc3)cc2)c1", "Potency": "inconclusive: 50.1 µM [activator, single point]"}
{"smiles": "Cc1ccc(NC(=O)CN2C(=O)CCc3cc(S(=O)(=O)N4CCCCC4)ccc32)cc1C", "Potency": "inconclusive: 35.5 µM [activator, single point]"}
{"smiles": "Cc1nc(COc2cccc(Cl)c2)sc1C(=O)/C=C/N(C)C", "Potency": "inconclusive: 28.2 µM [activator, partial curve, poor fit]"}
{"smiles": "COc1ccc(OC)c(-c2csc(NC(=O)COC(=O)c3ccc(NC(=O)CC#N)cc3)n2)c1", "Potency": "inconclusive: 39.8 µM [activator, partial curve, poor fit]"}
{"smiles": "CC(=O)Oc1ccc(-c2csc(Nc3ccc(Cl)cn3)n2)cc1", "Potency": "inactive"}
{"smiles": "O=C(CN1CCC(NC(=O)Nc2ccc(Cl)cc2)CC1)Nc1ccc2c(c1)OCCO2", "Potency": "inactive"}
{"smiles": "COc1ccc(-c2nnn(CC(=O)NCc3cccs3)n2)cc1OC", "Potency": "inconclusive: 25.1 µM [activator, partial curve, poor fit]"}
{"smiles": "CC(C)[C@H](NC(=O)OC(C)(C)C)C(=O)N1CCC(Oc2cccnc2)CC1", "Potency": "inactive"}
{"smiles": "COc1cccc(NC(=O)N2CCc3nc(NCc4cccc(Oc5ccccc5)c4)ncc3C2)c1", "Potency": "inconclusive: 35.5 µM [activator, single point]"}
{"smiles": "Cc1cccc(C(=O)Oc2ccccc2C2C[C@]3(C)CC(=O)NC3N2C(=O)c2cccc(C)c2)c1", "note": "(some centres not stated)", "Potency": "inconclusive: 31.6 µM [activator, partial curve, poor fit]"}
{"smiles": "COc1cccc(-n2cc(C(=O)Nc3cc(OC)c(OC)c(OC)c3)c3ccccc3c2=O)c1", "Potency": "inactive"}
{"smiles": "NS(=O)(=O)c1ccc(CCNc2ncnc3c2c(-c2ccccc2)cn3-c2ccc(F)cc2)cc1", "Potency": "inconclusive: 39.8 µM [activator, single point]"}
{"smiles": "COCCNc1oc(/C=C/c2cccc(OC)c2)nc1S(=O)(=O)c1ccccc1", "Potency": "inconclusive: 17.8 µM [activator, partial curve]"}
{"smiles": "COc1ccccc1N1CCN(C(=O)CSc2nc3ccccc3nc2N2CCCCC2)CC1", "Potency": "inconclusive: 17.8 µM [activator, single point]"}
{"smiles": "CCOC(=O)c1cccc(NC(=O)c2cc(S(=O)(=O)N3CCCC(C)C3)cn2C)c1", "note": "(configuration not stated)", "Potency": "inconclusive: 50.1 µM [activator, single point]"}
{"smiles": "COc1ccc2c(c1)CO[C@H]([C@H](O)COC(C)=O)[C@H]2/C=C/c1ccccc1", "Potency": "inactive"}
{"smiles": "Cc1ccc2cc(C#N)c(N3CCCN(C(=O)C4CCCO4)CC3)nc2c1C", "note": "(configuration not stated)", "Potency": "inconclusive: 35.5 µM [activator, single point]"}
{"smiles": "CN(C(=O)CSc1nnc(-c2ccc(Cl)cc2)n1C)C1CCS(=O)(=O)C1", "note": "(configuration not stated)", "Potency": "inactive"}
{"smiles": "CC(C)CC1(C)NC(=O)N(CC(=O)Nc2ccc3c(c2)CCC3)C1=O", "note": "(configuration not stated)", "growth rescue (activation)": "inconclusive: -88.7% [activator]"}
{"smiles": "COc1ccc2[nH]c(=O)c(CN(Cc3ccco3)C(c3nnnn3Cc3ccccc3)C(C)C)cc2c1", "note": "(configuration not stated)", "Potency": "inconclusive: 44.7 µM [activator, single point]"}
{"smiles": "CC(=O)N1CCN(S(=O)(=O)c2cccc(C(=O)OCC(=O)NC(=O)c3cccn3C)c2)CC1", "Potency": "inconclusive: 7.94 µM [activator, partial curve, poor fit]"}
{"smiles": "CCN1CCCCC(NC(=O)c2ccc(Cl)cc2Cl)C1=O", "note": "(configuration not stated)", "Potency": "inactive"}
{"smiles": "Cc1ccc([C@@H]2CC=C(C(=O)O)[C@H](c3ccc(F)cc3)N2S(=O)(=O)c2ccc(C)cc2)cc1", "Potency": "inactive"}
{"smiles": "COc1cc(/C=C2/SC(=S)N(Cc3ccccc3)C2=O)cc(OC)c1O", "Potency": "inconclusive: 56.2 µM [activator, single point]"}
{"smiles": "Cc1ccc(S(=O)(=O)N2CC(C)N(C(=O)N3CCOCC3)C2C)cc1", "note": "(configuration not stated)", "Potency": "inactive"}
{"smiles": "COC(=O)c1ccc(C(NC(=O)OCc2ccccc2)/C(C)=C/[C@@H](C)C(=O)NCc2ccc(-c3ccccc3)cc2)cc1", "note": "(some centres not stated)", "Potency": "inconclusive: 8.91 µM [activator, partial curve]"}
{"smiles": "Cc1ccc2c(c1)c(=O)c(C(=O)c1ccc3c(c1)OCO3)cn2Cc1cccc(F)c1", "Potency": "inconclusive: 50.1 µM [activator, single point]"}
